Assay results published in the supplement of paper PMC8728848.
The other results are listed elsewhere or left out.

Tests used:
Assay in all cases: glycan array binding signal (z-score within array); higher = stronger binding
Conditions in all cases: glycan notation: IUPAC condensed, linker removed
[1] = molecular target: Gal(b1-4)GlcNAc(b1-3)Gal(b1-4)GlcNAc(b1-3)[Gal(b1-4)GlcNAc(b1-3)Gal(b1-4)GlcNAc(b1-6)]GalNAc
In short: (§1)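 Glycan array binding is given as a within-array Z-score, which can be read as non-binding when negative. The arrays, 3228 of them, came from the Consortium for Functional Glycomics database and were retained only where the protein sequence was available. Z-scores were averaged across arrays of the same protein sequence at different concentrations or buffers and across linkers.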

[2] = molecular target: Gal(b1-4)GlcNAc(b1-3)Gal(b1-4)GlcNAc(b1-6)[Gal(b1-3)]GalNAc
In short: as §1

[3] = molecular target: Gal(b1-4)GlcNAc(b1-3)Gal(b1-4)[Fuc(a1-3)]GlcNAc(b1-3)Gal(b1-4)[Fuc(a1-3)]GlcNAc
In short: as §1

[4] = molecular target: Gal(b1-4)GlcNAc(b1-3)GalNAc
In short: as §1

[5] = molecular target: Gal(b1-4)GlcNAc(b1-3)[Fuc(a1-3)GlcNAc(b1-6)]Gal(b1-4)Glc
In short: as §1

[6] = molecular target: Gal(b1-4)GlcNAc(b1-3)[Gal(b1-4)GlcNAc(b1-6)]Gal(b1-4)GlcNAc
In short: as §1

[7] = molecular target: Gal(b1-4)GlcNAc(b1-3)[GlcNAc(b1-6)]Gal(b1-4)GlcNAc
In short: as §1

[8] = molecular target: Gal(b1-4)GlcNAc(b1-6)Gal(b1-4)GlcNAc
In short: as §1

[9] = molecular target: Gal(b1-4)GlcNAc(b1-6)GalNAc
In short: as §1

[10] = molecular target: Gal(b1-4)GlcNAc(b1-6)[Gal(b1-3)]GalNAc
In short: as §1

[11] = molecular target: Gal(b1-4)GlcNAc(b1-6)[Gal(b1-4)GlcNAc(b1-3)]GalNAc
In short: as §1

Gal(b1-4)GlcNAc6P = molecular target: Gal(b1-4)GlcNAc6P
In short: as §1

Gal(b1-6)Gal = molecular target: Gal(b1-6)Gal
In short: as §1

Gal3S(b1-3)GalNAc = molecular target: Gal3S(b1-3)GalNAc
In short: as §1

Gal3S(b1-3)GlcNAc = molecular target: Gal3S(b1-3)GlcNAc
In short: as §1

[12] = molecular target: Gal3S(b1-3)[Fuc(a1-4)]GlcNAc
In short: as §1

Gal3S(b1-4)Glc = molecular target: Gal3S(b1-4)Glc
In short: as §1

Gal3S(b1-4)Glc6S = molecular target: Gal3S(b1-4)Glc6S
In short: as §1

Gal3S(b1-4)GlcNAc = molecular target: Gal3S(b1-4)GlcNAc
In short: as §1

[13] = molecular target: Gal3S(b1-4)[Fuc(a1-3)]Glc6S
In short: as §1

[14] = molecular target: Gal3S(b1-4)[Fuc(a1-3)]GlcNAc
In short: as §1

[15] = molecular target: Gal3S(b1-4)[Fuc(a1-3)]GlcNAc6S
In short: as §1

Gal3S4S(b1-4)GlcNAc = molecular target: Gal3S4S(b1-4)GlcNAc
In short: as §1

Gal3S6S(b1-4)GlcNAc = molecular target: Gal3S6S(b1-4)GlcNAc
In short: as §1

Gal3S6S(b1-4)GlcNAc6S = molecular target: Gal3S6S(b1-4)GlcNAc6S
In short: as §1

Gal4S(b1-4)GlcNAc = molecular target: Gal4S(b1-4)GlcNAc
In short: as §1

Gal4S6S(b1-4)GlcNAc = molecular target: Gal4S6S(b1-4)GlcNAc
In short: as §1

Gal6P(b1-4)GlcNAc = molecular target: Gal6P(b1-4)GlcNAc
In short: as §1

Gal6S(b1-3)GlcNAc = molecular target: Gal6S(b1-3)GlcNAc
In short: as §1

Gal6S(b1-3)GlcNAc6S = molecular target: Gal6S(b1-3)GlcNAc6S
In short: as §1

Gal6S(b1-4)Glc = molecular target: Gal6S(b1-4)Glc
In short: as §1

Gal6S(b1-4)Glc6S = molecular target: Gal6S(b1-4)Glc6S
In short: as §1

Gal6S(b1-4)GlcNAc = molecular target: Gal6S(b1-4)GlcNAc
In short: as §1

Gal6S(b1-4)GlcNAc6S = molecular target: Gal6S(b1-4)GlcNAc6S
In short: as §1

GalNAc(a1-3)Gal = molecular target: GalNAc(a1-3)Gal
In short: as §1

GalNAc(a1-3)GalNAc = molecular target: GalNAc(a1-3)GalNAc
In short: as §1

[16] = molecular target: GalNAc(a1-3)GalNAc(b1-3)Gal(a1-4)Gal(b1-4)Glc
In short: as §1

[17] = molecular target: GalNAc(a1-3)GalNAc(b1-3)Gal(a1-4)Gal(b1-4)GlcNAc
In short: as §1

GalNAc(b1-3)Gal = molecular target: GalNAc(b1-3)Gal
In short: as §1

[18] = molecular target: GalNAc(b1-3)Gal(a1-4)Gal(b1-4)GlcNAc
In short: as §1

[19] = molecular target: GalNAc(b1-3)Gal(a1-4)Gal(b1-4)GlcNAc(b1-3)Gal(b1-4)Glc
In short: as §1

[20] = molecular target: GalNAc(b1-3)Gal(a1-6)Gal(b1-4)Glc
In short: as §1

GalNAc(b1-3)GalNAc = molecular target: GalNAc(b1-3)GalNAc
In short: as §1

GalNAc(b1-3)GlcNAc = molecular target: GalNAc(b1-3)GlcNAc
In short: as §1

GalNAc(b1-4)Gal(b1-4)Glc = molecular target: GalNAc(b1-4)Gal(b1-4)Glc
In short: as §1

B1: HBHA-Rv (Mycobacterium tuberculosum), P0A5P6 (protein)
chain: MAENSNIDDIKAPLLAALGAADLALATVNELITNLRERAEETRTDTRSRVEESRARLTKLQEDLPEQLTELREKFTAEELRKAAEGYLEAATSRYNELVERGEAALERLRSQQSFEEVSARAEGYVDQAVELTQEALGTVASQTRAVGERAAKLVGIELPKKAAPAKKAAPAKKAAPAKKAAAKKAPAKKAAAKKVTQK
B1 was tested. Which “glycan array binding signal (z-score)” value [1] did it give?
The value was -0.22.

What about the “glycan array binding signal (z-score)” value [2] of the same binder?
The value was -0.399.

And the “glycan array binding signal (z-score)” value [3]?
The value was -0.022.

And the “glycan array binding signal (z-score)” value [4]?
Its value is 0.153.

What about the “glycan array binding signal (z-score)” value [5] of the same binder?
Its value is -0.398.

And the “glycan array binding signal (z-score)” value [6]?
Its value is -0.469.

And the “glycan array binding signal (z-score)” value [7]?
The value was -0.345.

And the “glycan array binding signal (z-score)” value [8]?
The value was -0.117.

What about the “glycan array binding signal (z-score)” value [9] of the same binder?
Its value is 0.172.

What about the “glycan array binding signal (z-score)” value [10] of the same binder?
Its value is -0.216.

And the “glycan array binding signal (z-score)” value [11]?
Its value is 0.498.

And the “glycan array binding signal (z-score)” value (Gal(b1-4)GlcNAc6P)?
The value was -0.387.

And the “glycan array binding signal (z-score)” value (Gal(b1-6)Gal)?
Its value is -0.145.

What about the “glycan array binding signal (z-score)” value (Gal3S(b1-3)GalNAc) of the same binder?
Its value is 0.518.

And the “glycan array binding signal (z-score)” value (Gal3S(b1-3)GlcNAc)?
The value was 0.473.

What about the “glycan array binding signal (z-score)” value [12] of the same binder?
The value was -0.037.

What about the “glycan array binding signal (z-score)” value (Gal3S(b1-4)Glc) of the same binder?
Its value is 0.162.

What about the “glycan array binding signal (z-score)” value (Gal3S(b1-4)Glc6S) of the same binder?
The value was 0.3.

And the “glycan array binding signal (z-score)” value (Gal3S(b1-4)GlcNAc)?
Its value is 0.244.

And the “glycan array binding signal (z-score)” value [13]?
The value was -0.104.

And the “glycan array binding signal (z-score)” value [14]?
The value was 0.345.

What about the “glycan array binding signal (z-score)” value [15] of the same binder?
The value was 0.922.

And the “glycan array binding signal (z-score)” value (Gal3S4S(b1-4)GlcNAc)?
The value was 0.151.

What about the “glycan array binding signal (z-score)” value (Gal3S6S(b1-4)GlcNAc) of the same binder?
The value was 0.023.

What about the “glycan array binding signal (z-score)” value (Gal3S6S(b1-4)GlcNAc6S) of the same binder?
The value was 1.29.

What about the “glycan array binding signal (z-score)” value (Gal4S(b1-4)GlcNAc) of the same binder?
Its value is 0.695.

What about the “glycan array binding signal (z-score)” value (Gal4S6S(b1-4)GlcNAc) of the same binder?
The value was 0.83.

And the “glycan array binding signal (z-score)” value (Gal6P(b1-4)GlcNAc)?
Its value is -0.361.

And the “glycan array binding signal (z-score)” value (Gal6S(b1-3)GlcNAc)?
The value was 0.37.

And the “glycan array binding signal (z-score)” value (Gal6S(b1-3)GlcNAc6S)?
The value was -0.075.

And the “glycan array binding signal (z-score)” value (Gal6S(b1-4)Glc)?
The value was 1.36.

And the “glycan array binding signal (z-score)” value (Gal6S(b1-4)Glc6S)?
Its value is 0.834.

And the “glycan array binding signal (z-score)” value (Gal6S(b1-4)GlcNAc)?
The value was 0.696.

What about the “glycan array binding signal (z-score)” value (Gal6S(b1-4)GlcNAc6S) of the same binder?
Its value is 0.203.

And the “glycan array binding signal (z-score)” value (GalNAc(a1-3)Gal)?
Its value is 0.188.

What about the “glycan array binding signal (z-score)” value (GalNAc(a1-3)GalNAc) of the same binder?
Its value is 0.675.

And the “glycan array binding signal (z-score)” value [16]?
Its value is -0.385.

What about the “glycan array binding signal (z-score)” value [17] of the same binder?
The value was 0.131.

What about the “glycan array binding signal (z-score)” value (GalNAc(b1-3)Gal) of the same binder?
Its value is -0.428.

What about the “glycan array binding signal (z-score)” value [18] of the same binder?
The value was -0.143.

And the “glycan array binding signal (z-score)” value [19]?
The value was -0.273.

What about the “glycan array binding signal (z-score)” value [20] of the same binder?
Its value is -0.235.

What about the “glycan array binding signal (z-score)” value (GalNAc(b1-3)GalNAc) of the same binder?
Its value is -0.163.

What about the “glycan array binding signal (z-score)” value (GalNAc(b1-3)GlcNAc) of the same binder?
Its value is -0.441.

And the “glycan array binding signal (z-score)” value (GalNAc(b1-4)Gal(b1-4)Glc)?
The value was 0.744.
